Sequences with one replicate were seen in a single cluster, so their values are uncertain.
The sequences below were run on ATP (assay: switch fluorescence ratio, 500 uM ATP over buffer (Cy3 cluster intensity, sum of 5 cycles each) (fold (ratio)); higher = stronger signal-on switching upon ATP binding; sequences stand for … in TCGTCGGCAGCGTCAGATGTGTATAAGAGACAGTTTTTTTTTTTTTTTTTTTTTTTTT…TC). Conditions: aptamer strand: ATP DNA aptamer (quencher-CACCTGGGGGAGTATTGCGGAGGAAGG + anchor), 100 nM annealed; ATP concentration: 500 uM; one replicate.
Method in brief: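 Imaging in selection buffer was followed by imaging after 15 min with 500 uM ATP at 22 °C, for Cy3-labelled switching-strand clusters annealed to 100 nM quencher-labelled ATP aptamer on a modified Illumina MiSeq flow-cell. Five of these buffer/ATP cycles ran, separated by NaOH stripping and re-annealing. The fluorescence ratio per cluster is summed target-cycle over summed buffer-cycle Cy3 intensity, averaged per switch-domain sequence; clusters outside 100-1000 RFU were removed.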
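Note: ATP exposure 15 min at 22 °C before imaging.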

Row | Sequence | switch fluorescence ratio
1 | GCCGCAAGCT | 2.22
2 | ACGGTACAGT | 1.33
3 | GGGAGATTC | 1.04
4 | TAGTTAGGGA | 0.988
5 | TGGCACTATC | 1.01
6 | TATCATGAAA | 1.02
7 | GTACTGTTTT | 1.01
8 | GCCTTTCGCG | 1.38
9 | TATTACCAAT | 0.986
10 | GTATAGGAAG | 0.966
11 | TCAAGGAATG | 0.955
12 | TTGAGATGCG | 0.976
13 | CGCATACTTT | 3.81
14 | AACCGAACGG | 1.1
15 | GCTCACCGCT | 1.14
16 | TGCTCCGAG | 1.66
17 | TAGCAAAGTA | 0.975
18 | TTTGTGTTT | 0.996
19 | TCTCCTGTAA | 2.56
20 | CGCAGGCTCA | 2.28
21 | AAGTCGGACC | 0.986
22 | CTTATCTAAC | 1.06
23 | AGTGATAAGG | 1
24 | GGTATGGGTA | 0.991
25 | CAGCTCGACG | 1.01

Row | Sequence | switch fluorescence ratio
26 | CGGTTTCAGC | 1.04
27 | CCTATATCTG | 0.978
28 | CGTACCCATG | 1.05
29 | AGACACGTGG | 0.962
30 | TGCAGAGGCA | 1.03
31 | TACTGGGTCA | 0.993
32 | CTGTTGCTAA | 1.05
33 | CCAAGCTGAG | 1.15
34 | GGTGACAACT | 0.938
35 | GAGTTAGGAG | 1.04
36 | TGGGCATTGA | 0.891
37 | ACTGTGCTTG | 1.03
38 | AGCCTAAAAT | 0.993
39 | AGGTATCCA | 1
40 | AGAAAAGCT | 1.16
41 | CGGTTGTCTG | 0.965
42 | TGGTTCTATA | 0.974
43 | TTCCATTGTT | 1.01
44 | ACAGATGGAC | 1.02
45 | CGCTGTTCCA | 0.99
46 | GCGCAACGAT | 1.04
47 | CCTAGCAGGG | 1.14
48 | GCCATTCGTG | 1
49 | AGGAAGTCGC | 0.941
50 | CTCGTACGGG | 0.988

Row | Sequence | switch fluorescence ratio
51 | TTTTACCAT | 1.02
52 | TACCGTTCCT | 1.04
53 | CGGATCTGTG | 0.983
54 | CTTAACCCCC | 1.57
55 | TTGGGGACGC | 1.07
56 | GCTGGTATAG | 0.974
57 | CAGCACTTTA | 1.04
58 | CCAGGAGACA | 1.04
59 | AAATGATAGT | 1
60 | ACTTATGTA | 1.04
61 | TACCTGAACC | 1.19
62 | TATGTAATGA | 1.01
63 | AGAGAAACGT | 1.03
64 | GGTATATGCC | 0.931
65 | TATTTCAATT | 0.961
66 | TTGCGTTGTA | 1.07
67 | CAGAACTAC | 1.11
68 | CCAGGGTACG | 1.02
69 | GTTTGTAGAC | 1.08
70 | CAACTTTACG | 1.13
71 | AGGCGTTGCA | 1.01
72 | GTTCCTGGGC | 1.02
73 | CGTAAACTCA | 1.11
74 | GATGTTTG | 0.957
75 | GAATGTTTGC | 0.932

Row | Sequence | switch fluorescence ratio
76 | ACAGAGCGGA | 1.02
77 | AGGGCGGA | 1.03
78 | AATGCAGCGG | 1.01
79 | CTGGGATAAT | 1.01
80 | TCGAATTCCT | 1.02
81 | GAGGAAGTCA | 1.01
82 | GCCGCGGGG | 0.959
83 | CAGCAAAGGG | 1.09
84 | TGAGGCGCAG | 0.98
85 | TTACGATTCG | 0.975
86 | ATCGAGCGTT | 1.03
87 | ACCGGTTAGT | 0.994
88 | CTACTGGGTG | 1.42
89 | TGAAGCCCAT | 1.05
90 | GGATGTCCGA | 1.02
91 | CATGAATTAC | 1.04
92 | TATAGGTCCG | 1.09
93 | ATTCTGCGTT | 0.946
94 | GACTTCGATT | 1.03
95 | CTAATACTTT | 0.977
96 | AAACACTCAG | 0.997
97 | ATTAATCAAA | 1.03
98 | ACTGCTGGGT | 0.989
99 | CTTCACCTC | 1.37
100 | GGCGGGGTTT | 0.956

Row | Sequence | switch fluorescence ratio
101 | GGCCTTCTTT | 0.997
102 | TGGAACCAAT | 0.969
103 | TACTCAGCTA | 2.15
104 | GGTATGAGAT | 1.03
105 | TAGTCCTAAG | 1.01
106 | GCTACCATGC | 1.07
107 | AACGAACTC | 1.31
108 | CTGAGAATTG | 1
109 | TGGAAAAAAT | 0.99
110 | CGTCATTCTG | 1.04
111 | GGACCGCATA | 3.38
112 | ACTCGACTGG | 1.05
113 | TCCGGCCACT | 1.06
114 | GAGTCATAAA | 0.969
115 | CGCAGGCTTT | 1.1
116 | ATGCTGGCGT | 0.996
117 | TAAGGATCCG | 1.17
118 | GAAGATCCGC | 1.17
119 | AAAACCGGTC | 1.2
120 | GTCATTATTA | 1.03
121 | ACGGGATATG | 1.09
122 | GGAAGAGGGC | 0.975
123 | CAACATCATG | 1.01
124 | GCTAATCAAG | 0.989
125 | CCTGGTAATG | 1.09

Row | Sequence | switch fluorescence ratio
126 | CTGGCACGAA | 0.995
127 | GGATCTAAGC | 1
128 | TAACAGTTGA | 0.983
129 | CCGTGGATCT | 1.01
130 | TATGCGTCGC | 1.04
131 | TTACTGATAA | 1.04
132 | ATAGTGTGGG | 1.03
133 | GTCAATGTAT | 1.02
134 | AGCGATTTGC | 1.02
135 | GAATCGCACC | 1.51
136 | GTGTGTAACA | 0.966
137 | CAACTATCTT | 1.03
138 | AAAGCTCAGA | 0.965
139 | CGCAGAGGCC | 1.11
140 | TCAAGATTGA | 0.998
141 | ATCAGACATC | 1.01
142 | CCAACAGTCT | 1.08
143 | TAATGGTTCT | 1.02
144 | AATGCAGCGC | 1.05
145 | ACTTTCGACC | 1.33
146 | AGCAGGCTAA | 1.02
147 | GCTGATGGCG | 1.02
148 | GACCAGCGCA | 1.04
149 | TACATATTTA | 1.06
150 | TTGGCCTAAG | 1.01

Row | Sequence | switch fluorescence ratio
151 | TGACTCATTT | 1.06
152 | TCTTCGACCT | 1.23
153 | CGCCACAGCG | 1.01
154 | CGTGCCGCTA | 1.21
155 | ACTGGGCGGG | 1
156 | TGCCCCGGCA | 0.978
157 | GCTACTAAAC | 1.14
158 | TACTCGTTT | 0.982
159 | GTAATTTCAC | 1.01
160 | GGGACTGCAC | 1.4
161 | CTCCAGGCTA | 2.32
162 | GTGGTATGAC | 1.03
163 | GCCCCGCTCT | 1.06
164 | CCATGCCAAC | 1.3
165 | TCCGTCGGTG | 1.02
166 | ATCTTATCCG | 1.02
167 | AGGTAAACA | 0.941
168 | AAAACCACGG | 1.4
169 | TATCACAGTC | 1.01
170 | GACCGCCCCC | 2.11
171 | TCGAATAGGA | 1
172 | GGTATCCGTT | 1.03
173 | TGAACCATAG | 1.01
174 | CGTAATCAAA | 1.04
175 | TAGATTAGGG | 0.986

Row | Sequence | switch fluorescence ratio
176 | AACTGAAAGA | 0.978
177 | CCATTGGCAT | 1.11
178 | GGCACGGTAG | 1.02
179 | AGTTAAGAGG | 0.993
180 | GATGGGTCTC | 1.05
181 | GACATTATTT | 0.994
182 | CCATCGCAAG | 6.65
183 | AAAGGTGCTG | 0.872
184 | TGGGATTCGA | 1.07
185 | TGCAGTATTA | 1.08
186 | CCCACCGGCT | 1.06
187 | ATGGTTCAAG | 0.965
188 | TTCAAAGCGA | 1.18
189 | GATTTTCCAG | 0.993
190 | TTCTGTAAGT | 1.02
191 | AAGTATTTAA | 0.978
192 | ACGCGCGTTA | 0.986
193 | CTATATACTT | 1.05
194 | CGGCGAGCAC | 1.04
195 | CCTTGTTGAA | 0.971
196 | CGACTTCCTA | 1.16
197 | GAGGGGTCGC | 0.964
198 | GCGCAGGATC | 1.12
199 | ATCTCTTGAG | 0.993
200 | TGGATTGTCT | 0.984
